{"source": "paper PMC12136788", "binders": {"B1": {"name": "chr21:43695798:43695899:+|3pUTR|ENSG00000160208|msi1|total|mutant (ssRNA)", "RNA": "GGGAGUUCUACAGUCCGACGAUCACAAUAUUUUGUAAAAUGAUGCUUCCCCCUUCUCCAUGGUCCCGUCAAUUUUGUACAAUCCGGUAUCUGACUUUACAAGUUUGUUAUCCUUUCUAAUUUUUACUGAACUGAAAGCACAAACAACAGAGGAUUGAGCAUCA"}, "B2": {"name": "chr2:216672738:216672882:-|3pUTR|ENSG00000115461|msi1|FALSE|unique (ssRNA)", "RNA": "GGGAGUUCUACAGUCCGACGAUCUUCUCUUAGGCUUUUGUUUCUAUUUCAAACAUACUUUCUUGGUUUUCUAAUGGAGUAUAUAGUUUAGUCAUUUCACAGACUCUGGCCUCCUCUCCUGAAAUCCUUUUGGAUGGGGAAAGGCAACAGAGGAUUGAGCAUCA"}, "B3": {"name": "chr15:90882754:90882855:+|3pUTR|ENSG00000140564|msi1_unk|total|mutant (ssRNA)", "RNA": "GGGAGUUCUACAGUCCGACGAUCCACUUUGUGAUUAUUUCACUUCCGAUGCUGAUGAUUUGUUUUUGUAUUUUUAAUGGGGGCCGCAGCUGGACUACCCACGUUCUCACACCCACCGUCCGCCCUGCUCCUCCCUGGCUGCCCCAACAGAGGAUUGAGCAUCA"}, "B4": {"name": "chr5:179730620:179730726:+|3pUTR|ENSG00000127022|msi1_unk|total|mutant (ssRNA)", "RNA": "GGGAGUUCUACAGUCCGACGAUCGAGCUUUAAAUCAUCCGAGCUUAAAUUGUCAGAUCGUUCAUUGCCUUUCCAGGGUUAUUCCGUAAAGUUUGUUGAAAACAAAAACGCCUUUUCUUGGUUCUUUUUUCAGUUAUUUUGAAGCAACAGAGGAUUGAGCAUCA"}, "B5": {"name": "chr13:52475664:52475769:+|3pUTR|ENSG00000136108|msi1|FALSE|bound_elsewhere (ssRNA)", "RNA": "GGGAGUUCUACAGUCCGACGAUCGCGUCCCUUGGACUGCCUGUUGAUUGAUGGAAAGUGUCUGCACUGACACUUUUCGUCAGUAGUCUGUAGUUUCGUGGCCUCUUUUGAUUAUAACUGGGGUCACCAAGAAGGUUUACUUAACAACAGAGGAUUGAGCAUCA"}, "B6": {"name": "chrX:155122998:155123099:+|3pUTR|ENSG00000185515|unk|total|mutant (ssRNA)", "RNA": "GGGAGUUCUACAGUCCGACGAUCCUACAUACACACAAAUGAAUGCAUGUAAAAUCUGGUGAUACUGAAUAAAGUCUGUGGUCCCGACCGCAGUAUAAUAUUAUUGUCAAUGUCUUGGAUGUGAAGUUGUGCUACCGUUACAAACAACAGAGGAUUGAGCAUCA"}, "B7": {"name": "chr1:150144965:150145066:+|3pUTR|ENSG00000136631|msi1|total|mutant (ssRNA)", "RNA": "GGGAGUUCUACAGUCCGACGAUCAGACUCCCAGAGUUGUCCUAACAAUAAGUCUGAGCCCAUCUCAACCCACUUUUCUCCGGCCGUCUUUAUGUAUCUGUCCGCACAAUCACUUCAGUUACUGAUGAAUUUUGUUGGGAUCUGCAACAGAGGAUUGAGCAUCA"}, "B8": {"name": "chr21:44851366:44851434:-|CDS_3pUTR|ENSG00000183255|msi1_unk|total|mutant (ssRNA)", "RNA": "GGGAGUUCUACAGUCCGACGAUCAGGACAGUCCUCUCGUCUUGCAGACUGGUGACCUUCUAUUCCCUGUUCAUCUCUGUUUCCCGAUUCCGUCACUUGAAAUAAGAAAUCUUUGGGGUUUGGGCUUUUUUAUACUCUUCUCAGCAACAGAGGAUUGAGCAUCA"}, "B9": {"name": "chr9:72354534:72354635:-|3pUTR|ENSG00000107372|msi1|FALSE|unique (ssRNA)", "RNA": "GGGAGUUCUACAGUCCGACGAUCGUCCUAGUUUUUACUUUUAUUCUUAAAGCAUUCAGUUUUGCUUUCAAUUUUAUGUACCUUAGUUCUGAGUUAGACCUGCAGAUGUGUACAGAUAGUUCAUAUUUAUGUAUUGCACAUAAUCAACAGAGGAUUGAGCAUCA"}, "B10": {"name": "chrX:100674576:100674677:+|3pUTR|ENSG00000102359|msi1|FALSE|bound_elsewhere (ssRNA)", "RNA": "GGGAGUUCUACAGUCCGACGAUCUUGCAAUCCACACCAAAUCAAUCUUUGAAAACAUUCCUCCAUUCGGUUCAUACAUACAGUAGAAACCACUGUGGCUGCCCUUAAUCCAGUGUGCUUAUAGGAAAUCAGUUAGCAGCUGACCAACAGAGGAUUGAGCAUCA"}, "B11": {"name": "chr10:74118286:74118577:+|3pUTR|ENSG00000035403|msi1|total|mutant (ssRNA)", "RNA": "GGGAGUUCUACAGUCCGACGAUCGUAUUCUCAAACACAGUUACACUUGUGCACCCUCUAUCCCAACCGGCAGACUGGGUUUCCCGCCCAUGGACUUCACAUAAGCUCAGAAUCCAAGUGAACACCCGCCAGACACUCUGCUCUCAACAGAGGAUUGAGCAUCA"}, "B12": {"name": "ENSG00000033178:stop:overlap|stop_codon|ENSG00000033178|stop_codon|NA|stop_codon (ssRNA)", "RNA": "GGGAGUUCUACAGUCCGACGAUCCUAUUGAAAUUUAUGGCUGUCCGAAUAUUUGUUUGUUAAUACAUAAGUGUUCUGUAUAUUAGUAUUCUCUUAUCCUUCACAUCCAGCUUUGCUACUCUGUGGCAUUAGACAACUUUUUUCCAACAGAGGAUUGAGCAUCA"}, "B13": {"name": "ENSG00000070961:be:win_2951|CDS|ENSG00000070961|bound_else_gene|NA|bound_elsewhere_windowed (ssRNA)", "RNA": "GGGAGUUCUACAGUCCGACGAUCUUUUCAACGAAAUAAAUGCCCGGAAAAUUCAUGGUGAAAGAAAUGUAUUCGAAGGAAUCUUUAACAAUGCCAUCUUCUGCACAAUUGUUUUAGGCACUUUUGUGGUACAGAUAAUAAUUGCAACAGAGGAUUGAGCAUCA"}, "B14": {"name": "chr1:160214333:160214525:+|3pUTR|ENSG00000162734|msi1|FALSE|unique (ssRNA)", "RNA": "GGGAGUUCUACAGUCCGACGAUCCUACAGUGUUUUCCUUUGCACCGAUCCCCACCCCAAUUCAAUCCCGGAAGGGACUUACUUAGGAAACCCUUCUUUACUAGAUAUCCUGGCCCCCUGGGCUUGUGAACACCUCCUAGCCACCAACAGAGGAUUGAGCAUCA"}, "B15": {"name": "chr5:24509697:24509799:-|CDS|ENSG00000040731|unk|FALSE|unique (ssRNA)", "RNA": "GGGAGUUCUACAGUCCGACGAUCACUCGACUAUGAGAGCCGAAGACUUUAUACUCUGAAAGUCGAAGCAGAAAACACCCAUGUAGAUCCCCGUUUUUAUUACCUAGGACCAUUUAAAGAUACUACCAUAGUGAAAAUCUCUAUCAACAGAGGAUUGAGCAUCA"}, "B16": {"name": "ENSG00000198589:be:win_9001|3pUTR|ENSG00000198589|bound_else_gene|NA|bound_elsewhere_windowed (ssRNA)", "RNA": "GGGAGUUCUACAGUCCGACGAUCUUCUUCAGCACUAAUAUUUCUGGGAUUUAAAUAGUAAUGUUUAAAUUAUGGUAAAUGUAAUUUAAAACAUCUCAAUUAAGUCUGUCUAUCAAUAUUGUUCUUCAAGCAUGUUUUAGACCUCAACAGAGGAUUGAGCAUCA"}, "B17": {"name": "chr4:145760401:145760502:-|3pUTR|ENSG00000151612|unk|FALSE|unique (ssRNA)", "RNA": "GGGAGUUCUACAGUCCGACGAUCUCCGUACUUUUCUCUGAAAGGAAUCUUGUCUUGUUAAACCCUAAAGAGAGUGUCCUUAAUAGCAAUCAGCACUUGUAAGCUUAUAUACUGGUGCAUUUGGUUUUCUGUUGGGUGAAUGCGCAACAGAGGAUUGAGCAUCA"}, "B18": {"name": "ENSG00000124766:be:win_2301|3pUTR|ENSG00000124766|bound_else_gene|NA|bound_elsewhere_windowed (ssRNA)", "RNA": "GGGAGUUCUACAGUCCGACGAUCGCUGGGCCUCCGCCUUCUUUUCUACGUGAAAUCAGUGAGGUGAGACUUCCCAGACCCCGGAGGCGUGGAGGAGAGGAGACUGUUUGAUGUGGUACAGGGGCAGUCAGUGGAGGGCGAGUGCAACAGAGGAUUGAGCAUCA"}, "B19": {"name": "chr3:165187899:165190830:-|CDS|ENSG00000121871|control|control|control (ssRNA)", "RNA": "GGGAGUUCUACAGUCCGACGAUCAAAUGGUGGGGUGGUGCUGUUUCCUCCUGGGGGAGGCUGUGGUAGUGGCAGUAUGCUACUAGAUCGAGAGAGGCCACAGCCUGCCCCCUGCACAGUGGGAUUUGUGGACUGUCUCUAUGGCAACAGAGGAUUGAGCAUCA"}, "B20": {"name": "chr4:56448489:56448593:+|CDS|ENSG00000128050|unk|total|mutant (ssRNA)", "RNA": "GGGAGUUCUACAGUCCGACGAUCCCCACAGUGGUCUGAGGAACAGCUGAUUGCUGCAAAAUUUUGCUUUGCUGGACUUCUUACCGGCCAGACUGAAGUGGAUAUCAUGAGUCAUGCUACACAGGCUAUAUUUGAAAUACUGGACAACAGAGGAUUGAGCAUCA"}, "B21": {"name": "chr20:38750096:38750197:+|CDS|ENSG00000101442|unk|FALSE|unique (ssRNA)", "RNA": "GGGAGUUCUACAGUCCGACGAUCGCAAAUGAUGUCUGAGCUUCUUUUUGAGUGCUACGGGAUUCCCAAGGUUGCCUAUGGAAUAGACAGCCUCUUCAGCUUCUACCACAAUAAGCCAAAGAACUCGAUGUGCAGUGGGCUAAUCAACAGAGGAUUGAGCAUCA"}, "B22": {"name": "chr19:39539560:39539696:-|CDS|ENSG00000176396|unk|FALSE|unique (ssRNA)", "RNA": "GGGAGUUCUACAGUCCGACGAUCCGGGAACGGAGGCCUGGCUGCGUUGCCCUAUCUCCGUCUCCGCCACCCACUUAGCGUUUUAGGCAUCAAUUACCAGCAGUUUCUCCGCCACUAUCUGGAAAAUUACCCGAUUGCUCCCGGCAACAGAGGAUUGAGCAUCA"}}, "note": "The list shows a part of the results."}
{"molecular_target": "T1, UNK ZnF1-6 (called full-length) (human, UniProt Q9C0B0 30-357)", "T1 sequence": "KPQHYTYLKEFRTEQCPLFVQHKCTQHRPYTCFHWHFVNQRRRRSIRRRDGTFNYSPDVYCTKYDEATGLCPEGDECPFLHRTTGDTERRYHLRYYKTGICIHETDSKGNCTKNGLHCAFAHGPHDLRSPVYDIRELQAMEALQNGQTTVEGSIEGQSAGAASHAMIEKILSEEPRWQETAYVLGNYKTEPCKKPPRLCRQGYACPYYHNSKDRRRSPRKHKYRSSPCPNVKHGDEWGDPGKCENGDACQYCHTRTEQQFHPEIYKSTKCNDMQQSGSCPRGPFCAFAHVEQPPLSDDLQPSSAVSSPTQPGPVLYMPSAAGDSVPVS", "test": "nsRBNS (natural sequence RNA bind-n-seq); RBNS binding buffer (assumed for nsRBNS): 25 mM Tris pH 7.5, 150 mM KCl, 3 mM MgCl2, 0.01% Triton X-100, 500 ug/ml BSA, 20 U/ml SUPERase-In, 4 C; UNK is unkempt and MSI1 is Musashi-1; names of the RNAs are library labels; protein concentration not given here; high values mean tight binding", "units": {"binding signal": "enrichment R"}}
{"binder": "B1", "binding signal": 0.579}
{"binder": "B2", "binding signal": 5.21}
{"binder": "B3", "binding signal": 1.04}
{"binder": "B4", "binding signal": 0.332}
{"binder": "B5", "binding signal": 0.443}
{"binder": "B6", "binding signal": 0.211}
{"binder": "B7", "binding signal": 0.734}
{"binder": "B8", "binding signal": 0.43}
{"binder": "B9", "binding signal": 37.4}
{"binder": "B10", "binding signal": 0.532}
{"binder": "B11", "binding signal": 0.532}
{"binder": "B12", "binding signal": 0.919}
{"binder": "B13", "binding signal": 0.295}
{"binder": "B14", "binding signal": 2.33}
{"binder": "B15", "binding signal": 1.94}
{"binder": "B16", "binding signal": 0.446}
{"binder": "B17", "binding signal": 0.364}
{"binder": "B18", "binding signal": 0.985}
{"binder": "B19", "binding signal": 0.835}
{"binder": "B20", "binding signal": 0.456}
{"binder": "B21", "binding signal": 0.433}
{"binder": "B22", "binding signal": 1.3}
